According to publication PMC11805834 (Applied Microbiology and Biotechnology, 2025):

Molecular target: T1, mouse CD80-Fc fusion protein (mouse, UniProt Q00609 38-246)
T1 sequence: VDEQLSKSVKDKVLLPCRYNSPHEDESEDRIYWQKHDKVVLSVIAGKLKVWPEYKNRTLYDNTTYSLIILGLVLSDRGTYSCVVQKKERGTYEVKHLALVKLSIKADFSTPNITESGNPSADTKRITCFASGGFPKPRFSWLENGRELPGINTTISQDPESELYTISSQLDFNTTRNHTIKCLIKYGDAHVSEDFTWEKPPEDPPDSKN
Experiment: SPR

B1: Mouse CTLA-4 protein with His tag (receptor)
chain: not shown
Kd: 4.21 nM
